Screen size: about 45,000 compounds; about 200 (0.44%) were called active. Not shown: some 7% with an inconclusive outcome. Calls come from the whole dose curve; as a rule, active = well fitted activation curve with a large enough effect; inconclusive = small, poorly fitted or top-dose-only effect; inactive = no such curve, though single readings can be large or run the other way. The list shows a part of the results.
test: qHTS of TDP-43 Inhibitors: NCGC Sytravon Library Screen; settings: yeast TDP-43 toxicity rescue, BacTiter-Glo growth, 24 h; series mostly up to 46.1 µM; growth rescue (activation): at the top concentration; note: 0% is about no effect; nearly all actives have a fitted effect of over 55% in size
In short: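 TDP-43-expressing yeast, pregrown in raffinose, seeded at OD600 0.02 in galactose medium with compound for 24 hr at 30 deg C. Growth read by BacTiter-Glo luminescence, so rescue of toxicity appears as activation.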

| SMILES | growth rescue (activation) |
| --- | --- |
| COc1ccc(OCCN2CCN(C(=O)c3ccc(OC)c(OC)c3)CC2)cc1 | inactive: -5.13% |
| O=C(NCCCN1CCCCCC1)c1ccc2c(c1)NC(=O)C(N1CCOCC1)S2 (centres undefined) | inactive: 8.33% |
| COc1ccccc1Cn1c(=S)[nH]c2ccccc2c1=O | inactive: 15.9% |
| C=CCc1ccccc1OCCSc1nc2ccc([N+](=O)[O-])cc2s1 | inactive: 10.8% |
| C=C(C)COc1ccc2c(CC)cc(=O)oc2c1C | inactive: 6.07% |
| COc1ccc(NCc2nnc(SCC(=O)Nc3nc(-c4ccccc4)cs3)n2-c2ccccc2)cc1 | inactive: 13.4% |
| CCN1CCN(C(=S)c2ccc(OCC(=O)NCc3ccccc3)cc2)CC1 | inactive: 6.54% |
| C/C(=N/NC(=O)c1cc(C)[nH]n1)c1ccco1 | inactive: -1.97% |
| O=C(NCCc1cnn(-c2ccccc2)c1)c1cc(COc2c(F)cccc2F)on1 | inactive: 0.113% |
| O=C(Nc1ccc(F)c(Cl)c1)Nc1nnc([C@@H]2O[C@H](CO)[C@@H](O)[C@H]2O)s1 | inactive: 2.98% |
| CN(C)/C=N/n1cnc2ccccc2c1=O | inactive: -6.78% |
| O=S(=O)(Nc1cccc(S(=O)(=O)N2CCCCC2)c1)c1ccccc1F | inactive: -14.6% |
| CC(C)NC(=O)c1cc(C2CCCCN2S(=O)(=O)c2ccc(C#N)cc2)on1 (centres undefined) | inactive: 14.2% |
| Cc1cc(C)cc(NC(=O)C(OC(=O)c2ccc([N+](=O)[O-])o2)c2ccccc2)c1 (centres undefined) | inactive: 8.94% |
| CCCn1c(N)c(N(CCOC)C(=O)c2cc3c(s2)CCC(CC)C3)c(=O)[nH]c1=O (centres undefined) | inactive: 17.3% |
| CCn1c(CC(=O)Nc2ccccc2Cl)nnc1SCC(=O)NC1CCCC1 | inactive: 14% |
| COc1ccc(CCNC(=O)CN2C(=O)NC3(CCCCC3C)C2=O)cc1 (centres undefined) | inactive: 3.72% |
| Cc1ccc2nc3c(c(N)c2c1)CCN3C | inactive: -4.4% |
| COc1ccc(-c2nnn(CC(=O)N(CCCN3CCOCC3)C(C(=O)NC3CCCC3)c3ccc(C)o3)n2)cc1 (centres undefined) | inactive: 0.139% |
| CN(C)c1cccc(C(=O)NCc2ccc3c(c2)OCO3)c1 | inactive: 11.7% |
| CC(C)C(NC(=O)c1ccccc1F)C(=O)Nc1ccc2c(c1)OCO2 (centres undefined) | inactive: 12.8% |
| COc1cc(C2C(C(=O)c3ccco3)=C(O)C(=O)N2CC2CCCO2)ccc1O (centres undefined) | inactive: -3.48% |
| CCc1nnc(NC(=O)c2ccc(S(=O)(=O)N3CCCC(C)C3)cc2)s1 (centres undefined) | inactive: 4.19% |
| Cc1ccc2c(c1)c1c(n2CC(O)CN2CCCCCC2)CCCC1 (centres undefined) | inactive: -11.3% |
| CC1(C)CC2CC(C)(CN2C(=O)c2cc(-c3ccc(F)cc3)on2)C1 (centres undefined) | inactive: 4.81% |
| O=C(CCc1ccc(O)c(O)c1)NNC(=S)NCCc1ccccc1 | inactive: 3.4% |
| Cc1cc(C(=O)N2CCC2(C)C(=O)Nc2ccc3[nH]ncc3c2)nn1C (centres undefined) | inactive: -7.77% |

| SMILES | growth rescue (activation) |
| --- | --- |
| CS(=O)(=O)N1CCCC(C(=O)Nc2ccc(Br)cc2F)C1 (centres undefined) | inactive: -2.51% |
| Cc1cc(S(=O)(=O)Nc2cccc(C(=O)O)c2)c(C)c(S(=O)(=O)c2ccc(Cl)cc2)c1 | inactive: 8.34% |
| S=C(Nc1ccccc1Cl)N1CCN(Cc2ccccc2)CC1 | inactive: 10.9% |
| Cc1ccsc1C(C(=O)NCc1ccccc1)N(C(=O)c1csnn1)c1ccccc1 (centres undefined) | inactive: -3.37% |
| CCCn1nc(C(=O)Nc2nc3ccccc3[nH]2)c2ccccc2c1=O | inactive: -8.38% |
| CNC(=O)C1Cc2c(-c3ccccc3Oc3ccccc3)ccnc2O1 (centres undefined) | inactive: 1.24% |
| Cc1ccnc(NC(=O)CCCOc2ccccc2)c1 | inactive: 8.76% |
| COC(=O)C1=C(C)N(c2ccc(OC)cc2)C(=O)/C1=C\c1cccs1 | inactive: 15.6% |
| CS(=O)(=O)c1ccc(C(=O)N2CCN(S(=O)(=O)c3ccc(C4CCCCC4)cc3)CC2)cc1 | inactive: 3.94% |
| COc1cccc(CN(CC(=O)NC2CCCCC2)C(=O)c2csnn2)c1 | inactive: -15.9% |
| CCC1OC2(C)OC(=N)C1(C#N)C(C#N)(C#N)C2c1ccccc1 (centres undefined) | inactive: 6.05% |
| O=C(Nc1nccs1)c1csc([C@H]2C[C@H](O)[C@@H](CO)O2)n1 | inactive: 25.3% |
| CC1=C(C(=O)Nc2ccc(F)c(F)c2)C(c2cccs2)NC(=S)N1 (centres undefined) | inactive: 19.4% |
| O=S(=O)(/N=C(/Nc1ccc(F)cc1F)c1ccccc1)c1ccccc1 | inactive: 22.1% |
| O=C(Nc1ccccc1C(=O)O)c1cc(S(=O)(=O)NCc2ccccc2)ccc1Cl | inactive: -3.78% |
| COc1ccc(OCC(=O)N/N=C/C=C/c2ccccc2)cc1 | inactive: 25.1% |
| Cc1c(C=O)c2ccccc2n1CC(=O)NC(C)c1ccccc1 (centres undefined) | inactive: 2.37% |
| Cc1ccsc1CN(C)CC(=O)Nc1ccc([N+](=O)[O-])cc1Cl | inactive: -6.77% |
| O=S(=O)(c1ccc(F)cc1)N1CCC2(CC1)OCCO2 | inactive: 5.27% |
| CC(C)[C@H](NC(=O)OCc1ccccc1)C(=O)OCC(=O)N1CCCCC1 | inactive: 10.4% |
| CC(C)(C)C1c2[nH]c3ccccc3c2CCN1CCCn1cccn1 (centres undefined) | inactive: 9.73% |
| Cn1c(N)c(Sc2ccccc2[N+](=O)[O-])c(=O)n(C)c1=O | inactive: -8.28% |
| CC1CCN(S(=O)(=O)c2ccc3c(c2)CCN3C(=O)Nc2ccc(Br)cc2F)CC1 | inactive: -0.987% |
| COc1ccc(NC(=O)c2oc3ccccc3c2NC(=O)c2ccc(OC)c(OC)c2)c(OC)c1 | inactive: 22% |
| O=C(/C=C/c1ccc(S(=O)(=O)N2CCOCC2)cc1)Nc1cc(F)ccc1F | inactive: 19.6% |
| O=C(CNC(=O)c1ccc(Cl)cc1)NNc1c(F)c(F)cc(F)c1F | inactive: -5% |
| O=C(CCC(=O)c1cccs1)OCC(=O)N1CCN(C(=O)c2ccco2)CC1 | inactive: 12.8% |
